# In the supplement of paper PMC8728848:
# This is one part of the list.
# B1: laminarinase (Bacillus halodurans), Q9KBL8 (protein)
# chain: EETIELEGEVIPARLLSTKVKALNYDDYHNVLIDRCVEGGESIRGLGDGSWIAFHDINLEQPTNLLTVRAANENKQAVLEIRADRVDGPLVSQSVIPPTGGLQAWTTVTAQVNGETSEIRDLYLVFKGEFQLSWFSFS
# Assays:
# Experiment in all cases: glycan array binding signal (z-score within array); higher = stronger binding
# Settings in all cases: glycan notation: IUPAC condensed, linker removed
# Glc(a1-2)Glc = target: Glc(a1-2)Glc
# Method in brief: (§1)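 The binding signal is a Z-score computed within each array and averaged over linkers. Arrays of the same protein sequence at different concentrations or buffers were also averaged together. Data originate from 3228 arrays in the Consortium for Functional Glycomics database, kept only where the protein sequence was available.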
# Glc(a1-2)Glc(a1-2)Glc = target: Glc(a1-2)Glc(a1-2)Glc
# Method in brief: as §1
# [1] = target: Glc(a1-2)Glc(a1-2)Glc(a1-2)Glc
# Method in brief: as §1
# [2] = target: Glc(a1-2)Glc(a1-2)Glc(a1-2)Glc(a1-2)Glc
# Method in brief: as §1
# [3] = target: Glc(a1-2)Glc(a1-2)Glc(a1-2)Glc(a1-2)Glc(a1-2)Glc
# Method in brief: as §1
# [4] = target: Glc(a1-2)Glc(a1-2)Glc(a1-2)Glc(a1-2)Glc(a1-2)Glc(a1-2)Glc
# Method in brief: as §1
# [5] = target: Glc(a1-2)Glc(a1-2)Glc(a1-2)Glc(a1-2)Glc(a1-2)Glc(a1-2)Glc(a1-2)Glc
# Method in brief: as §1
# [6] = target: Glc(a1-2)Glc(a1-2)Glc(a1-2)Glc(a1-2)Glc(a1-2)Glc(a1-2)Glc(a1-2)Glc(a1-2)Glc
# Method in brief: as §1
# Glc(a1-3)Glc = target: Glc(a1-3)Glc
# Method in brief: as §1
# Glc(a1-3)Glc(a1-3)Glc = target: Glc(a1-3)Glc(a1-3)Glc
# Method in brief: as §1
# [7] = target: Glc(a1-3)Glc(a1-3)Glc(a1-3)Glc
# Method in brief: as §1
# [8] = target: Glc(a1-3)Glc(a1-3)Glc(a1-3)Glc(a1-3)Glc
# Method in brief: as §1
# [9] = target: Glc(a1-3)Glc(a1-3)Glc(a1-3)Glc(a1-3)Glc(a1-3)Glc
# Method in brief: as §1
# [10] = target: Glc(a1-3)Glc(a1-3)Glc(a1-3)Glc(a1-3)Glc(a1-3)Glc(a1-3)Glc
# Method in brief: as §1
# [11] = target: Glc(a1-3)Glc(a1-3)Glc(a1-3)Glc(a1-3)Glc(a1-3)Glc(a1-3)Glc(a1-3)Glc
# Method in brief: as §1
# [12] = target: Glc(a1-3)Glc(a1-3)Glc(a1-3)Glc(a1-3)Glc(a1-3)Glc(a1-3)Glc(a1-3)Glc(a1-3)Glc
# Method in brief: as §1
# [13] = target: Glc(a1-3)Glc(a1-3)Glc(a1-3)Glc(a1-3)Glc(a1-3)Glc(a1-3)Glc(a1-3)Glc(a1-3)Glc(a1-3)Glc
# Method in brief: as §1
# [14] = target: Glc(a1-3)Glc(a1-3)Glc(a1-3)Glc(a1-3)Glc(a1-3)Glc(a1-3)Glc(a1-3)Glc(a1-3)Glc(a1-3)Glc(a1-3)Glc
# Method in brief: as §1
# [15] = target: Glc(a1-3)Glc(a1-3)Glc(a1-3)Glc(a1-3)Glc(a1-3)Glc(a1-3)Glc(a1-3)Glc(a1-3)Glc(a1-3)Glc(a1-3)Glc(a1-3)Glc
# Method in brief: as §1
# [16] = target: Glc(a1-3)Glc(a1-3)Glc(a1-3)Glc(a1-3)Glc(a1-3)Glc(a1-3)Glc(a1-3)Glc(a1-3)Glc(a1-3)Glc(a1-3)Glc(a1-3)Glc(a1-3)Glc
# Method in brief: as §1
# Glc(a1-4)Glc = target: Glc(a1-4)Glc
# Method in brief: as §1
# Glc(a1-4)Glc(a1-4)Glc = target: Glc(a1-4)Glc(a1-4)Glc
# Method in brief: as §1
# [17] = target: Glc(a1-4)Glc(a1-4)Glc(a1-4)Glc
# Method in brief: as §1
# [18] = target: Glc(a1-4)Glc(a1-4)Glc(a1-4)Glc(a1-4)Glc
# Method in brief: as §1
# [19] = target: Glc(a1-4)Glc(a1-4)Glc(a1-4)Glc(a1-4)Glc(a1-4)Glc
# Method in brief: as §1
# [20] = target: Glc(a1-4)Glc(a1-4)Glc(a1-4)Glc(a1-4)Glc(a1-4)Glc(a1-4)Glc
# Method in brief: as §1
# [21] = target: Glc(a1-4)Glc(a1-4)Glc(a1-4)Glc(a1-4)Glc(a1-4)Glc(a1-4)Glc(a1-4)Glc
# Method in brief: as §1
# [22] = target: Glc(a1-4)Glc(a1-4)Glc(a1-4)Glc(a1-4)Glc(a1-4)Glc(a1-4)Glc(a1-4)Glc(a1-4)Glc
# Method in brief: as §1
# [23] = target: Glc(a1-4)Glc(a1-4)Glc(a1-4)Glc(a1-4)Glc(a1-4)Glc(a1-4)Glc(a1-4)Glc(a1-4)Glc(a1-4)Glc
# Method in brief: as §1
# [24] = target: Glc(a1-4)Glc(a1-4)Glc(a1-4)Glc(a1-4)Glc(a1-4)Glc(a1-4)Glc(a1-4)Glc(a1-4)Glc(a1-4)Glc(a1-4)Glc
# Method in brief: as §1
binder,measurement,setting,value
B1,glycan array binding signal (z-score),Glc(a1-2)Glc,-0.688
same,glycan array binding signal (z-score),Glc(a1-2)Glc(a1-2)Glc,-0.688
same,glycan array binding signal (z-score),[1],-0.688
same,glycan array binding signal (z-score),[2],-0.656
same,glycan array binding signal (z-score),[3],-0.688
same,glycan array binding signal (z-score),[4],-0.688
same,glycan array binding signal (z-score),[5],-0.688
same,glycan array binding signal (z-score),[6],-0.688
same,glycan array binding signal (z-score),Glc(a1-3)Glc,-0.688
same,glycan array binding signal (z-score),Glc(a1-3)Glc(a1-3)Glc,-0.688
same,glycan array binding signal (z-score),[7],-0.688
same,glycan array binding signal (z-score),[8],-0.688
same,glycan array binding signal (z-score),[9],-0.686
same,glycan array binding signal (z-score),[10],-0.672
same,glycan array binding signal (z-score),[11],-0.639
same,glycan array binding signal (z-score),[12],-0.633
same,glycan array binding signal (z-score),[13],-0.658
same,glycan array binding signal (z-score),[14],-0.679
same,glycan array binding signal (z-score),[15],-0.654
same,glycan array binding signal (z-score),[16],-0.636
same,glycan array binding signal (z-score),Glc(a1-4)Glc,-0.688
same,glycan array binding signal (z-score),Glc(a1-4)Glc(a1-4)Glc,-0.688
same,glycan array binding signal (z-score),[17],-0.687
same,glycan array binding signal (z-score),[18],-0.687
same,glycan array binding signal (z-score),[19],-0.688
same,glycan array binding signal (z-score),[20],-0.682
same,glycan array binding signal (z-score),[21],-0.675
same,glycan array binding signal (z-score),[22],-0.679
same,glycan array binding signal (z-score),[23],-0.679
same,glycan array binding signal (z-score),[24],-0.679
